In experiment [1] the target is HOIP (HOIL-1L interacting protein), full-length, expressed by transfection (UniProt Q96EP0). Description: co-IP; reciprocal co-IP (Fig. S3A, S3B); the other partner precipitated.
The target in experiment [2] is T1, Sharpin (SHANK-associated RH domain-interacting protein), expressed by transfection (UniProt Q9H0F6).
T1 sequence: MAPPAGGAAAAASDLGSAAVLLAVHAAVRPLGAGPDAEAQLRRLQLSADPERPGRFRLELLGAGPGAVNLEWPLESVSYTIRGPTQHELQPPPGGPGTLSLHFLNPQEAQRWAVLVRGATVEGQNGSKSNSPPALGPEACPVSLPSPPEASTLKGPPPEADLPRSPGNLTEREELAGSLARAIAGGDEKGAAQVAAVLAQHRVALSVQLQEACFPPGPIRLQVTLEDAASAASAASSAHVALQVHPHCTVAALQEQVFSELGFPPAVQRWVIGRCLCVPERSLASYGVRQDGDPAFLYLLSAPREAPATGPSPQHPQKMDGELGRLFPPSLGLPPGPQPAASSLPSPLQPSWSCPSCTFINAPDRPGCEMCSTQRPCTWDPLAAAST
The experiment is described as above.

The chains behind the UniProt entries cited, without tags or fusion partners. Where a name states a change or a piece, a line headed by the entry shows the natural chain unless it says otherwise. Residues count along the entry.
UniProt Q96EP0: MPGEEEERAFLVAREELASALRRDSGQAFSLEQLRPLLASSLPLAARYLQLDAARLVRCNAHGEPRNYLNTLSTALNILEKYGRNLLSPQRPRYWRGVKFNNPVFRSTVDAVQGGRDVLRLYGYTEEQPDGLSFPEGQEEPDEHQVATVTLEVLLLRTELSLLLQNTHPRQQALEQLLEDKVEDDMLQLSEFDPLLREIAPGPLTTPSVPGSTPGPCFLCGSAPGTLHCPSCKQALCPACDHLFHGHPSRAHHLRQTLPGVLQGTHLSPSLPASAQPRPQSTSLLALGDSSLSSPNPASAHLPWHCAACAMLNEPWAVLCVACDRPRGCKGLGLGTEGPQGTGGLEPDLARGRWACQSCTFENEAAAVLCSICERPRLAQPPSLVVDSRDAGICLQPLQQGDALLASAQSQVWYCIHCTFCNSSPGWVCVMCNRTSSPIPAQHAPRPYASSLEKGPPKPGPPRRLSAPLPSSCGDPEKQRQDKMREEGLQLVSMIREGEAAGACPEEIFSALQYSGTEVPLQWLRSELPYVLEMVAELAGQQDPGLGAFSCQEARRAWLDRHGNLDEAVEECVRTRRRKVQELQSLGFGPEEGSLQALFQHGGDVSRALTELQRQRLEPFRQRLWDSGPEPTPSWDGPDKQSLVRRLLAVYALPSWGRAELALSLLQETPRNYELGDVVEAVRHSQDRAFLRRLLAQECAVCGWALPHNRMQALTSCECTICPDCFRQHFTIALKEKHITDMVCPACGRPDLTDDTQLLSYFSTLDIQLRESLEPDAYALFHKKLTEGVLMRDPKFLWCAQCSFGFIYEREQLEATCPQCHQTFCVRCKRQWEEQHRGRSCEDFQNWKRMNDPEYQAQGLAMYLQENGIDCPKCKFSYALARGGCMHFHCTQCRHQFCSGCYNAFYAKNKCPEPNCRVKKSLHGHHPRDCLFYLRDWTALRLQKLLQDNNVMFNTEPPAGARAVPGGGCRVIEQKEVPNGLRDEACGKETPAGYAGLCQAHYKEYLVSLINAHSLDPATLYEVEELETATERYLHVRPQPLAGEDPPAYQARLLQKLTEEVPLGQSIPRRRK
UniProt Q16665: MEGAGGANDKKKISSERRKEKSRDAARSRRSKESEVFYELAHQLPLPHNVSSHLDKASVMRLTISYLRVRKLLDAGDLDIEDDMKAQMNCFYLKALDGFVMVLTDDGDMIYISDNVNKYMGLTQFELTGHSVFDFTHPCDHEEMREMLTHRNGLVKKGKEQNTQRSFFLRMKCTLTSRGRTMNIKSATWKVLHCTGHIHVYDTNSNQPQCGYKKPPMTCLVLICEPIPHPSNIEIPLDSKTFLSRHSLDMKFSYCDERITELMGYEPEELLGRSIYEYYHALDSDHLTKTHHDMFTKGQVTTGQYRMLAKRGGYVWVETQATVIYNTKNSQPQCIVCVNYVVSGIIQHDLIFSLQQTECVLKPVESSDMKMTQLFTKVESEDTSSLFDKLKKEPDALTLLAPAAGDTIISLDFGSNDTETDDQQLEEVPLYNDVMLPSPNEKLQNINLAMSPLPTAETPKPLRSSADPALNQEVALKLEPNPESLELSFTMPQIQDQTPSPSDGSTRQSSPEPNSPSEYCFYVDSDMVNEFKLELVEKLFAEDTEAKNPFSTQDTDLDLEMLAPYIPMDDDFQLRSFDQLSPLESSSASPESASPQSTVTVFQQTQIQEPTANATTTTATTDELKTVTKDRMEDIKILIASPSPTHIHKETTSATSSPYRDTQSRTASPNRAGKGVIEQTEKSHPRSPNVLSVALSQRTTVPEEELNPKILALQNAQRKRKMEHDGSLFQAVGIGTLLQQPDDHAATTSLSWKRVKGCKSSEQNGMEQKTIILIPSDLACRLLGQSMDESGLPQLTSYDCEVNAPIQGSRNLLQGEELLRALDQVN
HIF1α(1-80): residues 1-80 of Q16665
UniProt P11142: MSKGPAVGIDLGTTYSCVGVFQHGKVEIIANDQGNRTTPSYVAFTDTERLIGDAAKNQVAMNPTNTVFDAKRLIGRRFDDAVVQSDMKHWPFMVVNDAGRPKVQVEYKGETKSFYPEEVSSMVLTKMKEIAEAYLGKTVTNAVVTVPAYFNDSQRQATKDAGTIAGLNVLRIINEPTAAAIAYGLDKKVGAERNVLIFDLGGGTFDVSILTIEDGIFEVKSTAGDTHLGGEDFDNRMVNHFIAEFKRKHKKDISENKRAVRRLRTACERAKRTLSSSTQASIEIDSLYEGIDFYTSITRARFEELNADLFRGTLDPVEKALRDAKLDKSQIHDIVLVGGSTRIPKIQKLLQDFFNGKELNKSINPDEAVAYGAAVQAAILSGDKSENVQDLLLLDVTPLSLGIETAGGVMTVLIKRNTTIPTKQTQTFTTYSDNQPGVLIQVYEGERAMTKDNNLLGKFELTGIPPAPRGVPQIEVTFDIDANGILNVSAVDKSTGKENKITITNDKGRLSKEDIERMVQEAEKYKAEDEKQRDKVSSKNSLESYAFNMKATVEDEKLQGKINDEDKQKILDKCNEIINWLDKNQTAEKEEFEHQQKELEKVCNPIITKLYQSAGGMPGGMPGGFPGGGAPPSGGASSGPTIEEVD

The target of experiment [3] is HIF1α(1-80) (UniProt Q16665). Description: pull-down; GST pulldown from lysates of transfected HEK293T cells in NETN buffer on glutathione agarose, detected by immunoblot; in Fig. 6E, F with or without overexpressed HOIP. A general note: In western blotting, separated proteins are transferred to a membrane and probed.
In experiment [4] the target is HIF1α (hypoxia-inducible factor 1 alpha), full-length, expressed by transfection (UniProt Q16665). Description: co-IP; co-IP/IB from lysates of HEK293T cells transfected as indicated (antibody with Protein A/G agarose overnight, then immunoblot).
In experiment [5] the target is HIF1α, endogenous in A549 cells (human (endogenous in A549)) (UniProt Q16665). Nature of the experiment: co-IP; IP/IB of endogenous proteins from A549 lysates (antibody with Protein A/G agarose overnight, then immunoblot); cells untreated or treated with DMOG, or A549 HOIPCON/HOIPOE and HOIPWT/HOIPKO lines.
Experiment [6] concerns the target HIF1α (hypoxia-inducible factor 1 alpha), full-length, expressed by transfection (UniProt Q16665). Nature of the experiment: pull-down; GST pulldown from lysates of transfected HEK293T cells in NETN buffer on glutathione agarose, detected by immunoblot; in Fig. 6E, F with or without overexpressed HOIP.
Experiment [7] concerns the target HIF1α^K362R, linear ubiquitination-resistant mutant of HIF1α (UniProt Q16665). Description: co-IP; co-IP/IB from lysates of HEK293T cells transfected as indicated (antibody with Protein A/G agarose overnight, then immunoblot).

Results are given in words; binding and its absence hold for the method and conditions named. In cells and extracts the contact can be indirect. Some results given as binding are weak or reduced against the parent protein; the word gives no strength.

For the substance “HIF1α (hypoxia-inducible factor 1 alpha), full-length, expressed by transfection (from UniProt Q16665 1-826)”, the binding entry is given as “binds” in experiment [1] and “no binding” in experiment [2].

On to “HOIP (HOIL-1L interacting protein), full-length, expressed by transfection (from UniProt Q96EP0 1-1072) (enzyme)”, for which the binding entry in experiment [3] and in experiment [4] was “binds” each time.

Consider “HOIP(521-570) (from UniProt Q96EP0 521-570) (domain or fragment)”, for which, in experiment [3], the binding result is “binds”.

Regarding “HOIP, endogenous in A549 cells (from UniProt Q96EP0 1-1072) (enzyme)”, the binding entry in experiment [5] was “binds”.

“HSC70 (heat-shock cognate protein of 70 kDa) in HEK293T cells (from UniProt P11142 1-646)”: the binding entry in experiment [6], in experiment [4] and in experiment [7] was “binds” each time.

Consider “HSC70, endogenous in A549 cells (from UniProt P11142 1-646)”, for which the binding entry in experiment [5] was “binds”.
